These results are taken from PMC9911399, “Two distinct binding modes provide the RNA-binding protein RbFox with extraordinary sequence specificity”.

Residue numbers refer to the chain shown, from its start. This is one part of the list.

B1: CGAGUUU (DNA:RNA)
RNA: GGGAGACCGGAAUUCAGAUUGUCCCGAGUUUUUAAAUCCCGUCGUAGCCACCA
DNA 1: CAATCTGAATTCCGGTCTCCC
DNA 2: TGGTGGCTACGACGGGATT
B2: UAAGGUA (DNA:RNA)
RNA: B1 RNA with C25U, G26A, U29G, U31A
DNA 1: CAATCTGAATTCCGGTCTCCC
DNA 2: TGGTGGCTACGACGGGATT
B3: UUACUGC (DNA:RNA)
RNA: B1 RNA with C25U, G26U, G28C, U30G, U31C
DNA 1: CAATCTGAATTCCGGTCTCCC
DNA 2: TGGTGGCTACGACGGGATT
B4: GACCUAA (DNA:RNA)
RNA: B1 RNA with C25G, G26A, A27C, G28C, U30A, U31A
DNA 1: CAATCTGAATTCCGGTCTCCC
DNA 2: TGGTGGCTACGACGGGATT
B5: CGGAUAU (DNA:RNA)
RNA: B1 RNA with A27G, G28A, U30A
DNA 1: CAATCTGAATTCCGGTCTCCC
DNA 2: TGGTGGCTACGACGGGATT
B6: GUCAUGU (DNA:RNA)
RNA: B1 RNA with C25G, G26U, A27C, G28A, U30G
DNA 1: CAATCTGAATTCCGGTCTCCC
DNA 2: TGGTGGCTACGACGGGATT
B7: GAACUAG (DNA:RNA)
RNA: B1 RNA with C25G, G26A, G28C, U30A, U31G
DNA 1: CAATCTGAATTCCGGTCTCCC
DNA 2: TGGTGGCTACGACGGGATT
B8: GGCAAGU (DNA:RNA)
RNA: B1 RNA with C25G, A27C, G28A, U29A, U30G
DNA 1: CAATCTGAATTCCGGTCTCCC
DNA 2: TGGTGGCTACGACGGGATT
B9: UCCCCCG (DNA:RNA)
RNA: GGGAGACCGGAAUUCAGAUUGUCCUCCCCCGUUAAAUCCCGUCGUAGCCACCA
DNA 1: CAATCTGAATTCCGGTCTCCC
DNA 2: TGGTGGCTACGACGGGATT
B10: CCGUGGC (DNA:RNA)
RNA: B1 RNA with G26C, A27G, G28U, U29G, U30G, U31C
DNA 1: CAATCTGAATTCCGGTCTCCC
DNA 2: TGGTGGCTACGACGGGATT
B11: GGGCGCC (DNA:RNA)
RNA: B9 RNA with U25G, C26G, C27G, C29G, G31C
DNA 1: CAATCTGAATTCCGGTCTCCC
DNA 2: TGGTGGCTACGACGGGATT
B12: ACAAUGC (DNA:RNA)
RNA: B1 RNA with C25A, G26C, G28A, U30G, U31C
DNA 1: CAATCTGAATTCCGGTCTCCC
DNA 2: TGGTGGCTACGACGGGATT
B13: AAGUCUA (DNA:RNA)
RNA: B1 RNA with C25A, G26A, A27G, G28U, U29C, U31A
DNA 1: CAATCTGAATTCCGGTCTCCC
DNA 2: TGGTGGCTACGACGGGATT
B14: GAAUAUG (DNA:RNA)
RNA: B1 RNA with C25G, G26A, G28U, U29A, U31G
DNA 1: CAATCTGAATTCCGGTCTCCC
DNA 2: TGGTGGCTACGACGGGATT
B15: AUCUGUU (DNA:RNA)
RNA: B1 RNA with C25A, G26U, A27C, G28U, U29G
DNA 1: CAATCTGAATTCCGGTCTCCC
DNA 2: TGGTGGCTACGACGGGATT
B16: CAUACCU (DNA:RNA)
RNA: B1 RNA with G26A, A27U, G28A, U29C, U30C
DNA 1: CAATCTGAATTCCGGTCTCCC
DNA 2: TGGTGGCTACGACGGGATT
B17: GCAUCAC (DNA:RNA)
RNA: B9 RNA with U25G, C27A, C28U, C30A, G31C
DNA 1: CAATCTGAATTCCGGTCTCCC
DNA 2: TGGTGGCTACGACGGGATT
B18: GGGGGCC (DNA:RNA)
RNA: B1 RNA with C25G, A27G, U29G, U30C, U31C
DNA 1: CAATCTGAATTCCGGTCTCCC
DNA 2: TGGTGGCTACGACGGGATT
B19: GAAGUAG (DNA:RNA)
RNA: B1 RNA with C25G, G26A, U30A, U31G
DNA 1: CAATCTGAATTCCGGTCTCCC
DNA 2: TGGTGGCTACGACGGGATT
B20: UUAAUAC (DNA:RNA)
RNA: B1 RNA with C25U, G26U, G28A, U30A, U31C
DNA 1: CAATCTGAATTCCGGTCTCCC
DNA 2: TGGTGGCTACGACGGGATT
B21: AUGCACG (DNA:RNA)
RNA: B9 RNA with U25A, C26U, C27G, C29A
DNA 1: CAATCTGAATTCCGGTCTCCC
DNA 2: TGGTGGCTACGACGGGATT
B22: UAUUGUA (DNA:RNA)
RNA: B1 RNA with C25U, G26A, A27U, G28U, U29G, U31A
DNA 1: CAATCTGAATTCCGGTCTCCC
DNA 2: TGGTGGCTACGACGGGATT
B23: CGCUCAU (DNA:RNA)
RNA: B1 RNA with A27C, G28U, U29C, U30A
DNA 1: CAATCTGAATTCCGGTCTCCC
DNA 2: TGGTGGCTACGACGGGATT
B24: AGGAAGG (DNA:RNA)
RNA: B1 RNA with C25A, A27G, G28A, U29A, U30G, U31G
DNA 1: CAATCTGAATTCCGGTCTCCC
DNA 2: TGGTGGCTACGACGGGATT
B25: UAGCCGG (DNA:RNA)
RNA: B9 RNA with C26A, C27G, C30G
DNA 1: CAATCTGAATTCCGGTCTCCC
DNA 2: TGGTGGCTACGACGGGATT
B26: CGACUAG (DNA:RNA)
RNA: B1 RNA with G28C, U30A, U31G
DNA 1: CAATCTGAATTCCGGTCTCCC
DNA 2: TGGTGGCTACGACGGGATT
B27: CUUUGAG (DNA:RNA)
RNA: B1 RNA with G26U, A27U, G28U, U29G, U30A, U31G
DNA 1: CAATCTGAATTCCGGTCTCCC
DNA 2: TGGTGGCTACGACGGGATT
B28: UGUUUGC (DNA:RNA)
RNA: B1 RNA with C25U, A27U, G28U, U30G, U31C
DNA 1: CAATCTGAATTCCGGTCTCCC
DNA 2: TGGTGGCTACGACGGGATT
B29: CCCACGA (DNA:RNA)
RNA: B9 RNA with U25C, C28A, C30G, G31A
DNA 1: CAATCTGAATTCCGGTCTCCC
DNA 2: TGGTGGCTACGACGGGATT
B30: GGGUUUC (DNA:RNA)
RNA: B1 RNA with C25G, A27G, G28U, U31C
DNA 1: CAATCTGAATTCCGGTCTCCC
DNA 2: TGGTGGCTACGACGGGATT
B31: CCAGUGU (DNA:RNA)
RNA: B1 RNA with G26C, U30G
DNA 1: CAATCTGAATTCCGGTCTCCC
DNA 2: TGGTGGCTACGACGGGATT

For this assay, the target named is T1, RBFOX1 RRM RbFoxmut (Fox-RRM*) (Homo sapiens, UniProt Q9NWB1 109-208, R118D;E147R;N151S;E152T).
T1 sequence: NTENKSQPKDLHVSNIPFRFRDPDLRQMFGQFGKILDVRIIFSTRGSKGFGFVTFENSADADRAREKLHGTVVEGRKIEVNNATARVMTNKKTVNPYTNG
The experiment in a line: EMSA; HiTS-Eq, 1 nM pool, 10 min; buffer printed only for the single-RNA assays: 10 mM Tris pH 7.5, 150 mM NaCl, 3.4 mM EDTA, 0.001% NP-40, 30 C. As to conditions: tags: His6 N-terminal (pET28a); label: 5' 32P. The method, boiled down:
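Purified wild-type or mutant RbFox RRM at increasing concentrations was equilibrated with 1 nM of 5′-radiolabelled RNA carrying 7 randomized nucleotides for 10 min in 50 µL. Unbound RNA was separated by 8% native PAGE and sequenced. Relative association constants came from read-count changes of each RNA species compared with the control reaction, normalised to the cognate motif.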
In general terms: In EMSA bound probe runs differently from free probe, usually more slowly.
Turning to B1, the binding signal is 0.0899 KA relative to UGCAUGU.

On to B2, for which the binding signal was 0.095 KA relative to UGCAUGU.

On to B3, for which the binding signal is 0.0966 KA relative to UGCAUGU.

B4: the binding signal is 0.0808 KA relative to UGCAUGU.

As for B5, the binding signal was 0.0924 KA relative to UGCAUGU.

On to B6, for which the binding signal is 0.288 KA relative to UGCAUGU.

For the molecule B7, the binding signal was 0.0578 KA relative to UGCAUGU.

B8: the binding signal is 0.088 KA relative to UGCAUGU.

As for B9, the binding signal is 0.0837 KA relative to UGCAUGU.

Regarding B10, the binding signal is 0.0995 KA relative to UGCAUGU.

In the case of B11, the binding signal was 0.113 KA relative to UGCAUGU.

As for B12, the binding signal was 0.101 KA relative to UGCAUGU.

B13: the binding signal is 0.0985 KA relative to UGCAUGU.

In the case of B14, the binding signal was 0.167 KA relative to UGCAUGU.

For the molecule B15, the binding signal was 0.0926 KA relative to UGCAUGU.

Consider B16, for which the binding signal was 0.106 KA relative to UGCAUGU.

Turning to B17, the binding signal is 0.293 KA relative to UGCAUGU.

Take B18: the binding signal was 0.171 KA relative to UGCAUGU.

For B19, the binding signal was 0.128 KA relative to UGCAUGU.

On to B20, for which the binding signal is 0.116 KA relative to UGCAUGU.

B21: the binding signal is 0.551 KA relative to UGCAUGU.

In the case of B22, the binding signal is 0.213 KA relative to UGCAUGU.

As to B23, the binding signal is 0.0668 KA relative to UGCAUGU.

On to B24, for which the binding signal is 0.0896 KA relative to UGCAUGU.

B25: the binding signal is 0.0852 KA relative to UGCAUGU.

For the molecule B26, the binding signal was 0.0914 KA relative to UGCAUGU.

For B27, the binding signal was 0.103 KA relative to UGCAUGU.

As for B28, the binding signal was 0.274 KA relative to UGCAUGU.

As for B29, the binding signal was 0.0865 KA relative to UGCAUGU.

Turning to B30, the binding signal was 0.192 KA relative to UGCAUGU.

For the molecule B31, the binding signal was 0.156 KA relative to UGCAUGU.
